Assay results as given in US12559523B2, “Compositions comprising chemerin analogs and methods of use” (OKYO Pharma Limited, priority 2019, dated 2026).
At least one compound was matched to its structure with a doubt left. Non-standard residues stand in square brackets, D forms with d. Residues, ends and D or L forms follow the SMILES beside them. *: point of attachment. PEG8 = NCCOCCOCCOCCOCCOCCOCCOCCOCCC(=O)O; Phe(4-F) = N[C@@H](Cc1ccc(F)cc1)C(=O)O; Palmitoyl = CCCCCCCCCCCCCCCC(=O)*; Tic = O=C(O)[C@@H]1Cc2ccccc2CN1; Aad = N[C@@H](CCCC(=O)O)C(=O)O; Nle = CCCC[C@H](N)C(=O)O; Nva = CCC[C@H](N)C(=O)O

Biological target: T1, human Chemokine-like receptor 1, CMKLR1 (Homo sapiens, UniProt Q99788)
T1 sequence (Q99788 1-373): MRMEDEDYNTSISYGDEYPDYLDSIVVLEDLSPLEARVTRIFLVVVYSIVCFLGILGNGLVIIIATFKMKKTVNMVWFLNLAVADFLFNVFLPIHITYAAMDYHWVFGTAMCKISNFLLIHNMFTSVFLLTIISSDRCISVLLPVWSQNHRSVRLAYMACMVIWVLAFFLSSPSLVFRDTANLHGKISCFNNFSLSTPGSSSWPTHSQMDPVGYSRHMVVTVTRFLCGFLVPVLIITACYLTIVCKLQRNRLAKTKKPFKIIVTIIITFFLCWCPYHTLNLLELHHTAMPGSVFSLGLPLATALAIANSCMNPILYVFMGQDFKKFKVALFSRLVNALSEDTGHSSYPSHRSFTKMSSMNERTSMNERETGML
Assay: PathHunter β-Arrestin GPCR assay, agonist format
Type: cell-based
Details: peptides with N-terminal PEG8-Palmitic acid, β-arrestin recruitment

Compound	EC50
CCCCCCCCCCCCCCCC(=O)NCCOCCOCCOCCOCCOCCOCCOCCOCCC(=O)N[C@H](C)C(=O)NCC(=O)N[C@H](Cc1ccc(O)cc1)C(=O)N[C@@H](Cc1ccccc1)C(=O)N[C@@H](CCCC)C(=O)N1CCC[C@H]1C(=O)N[C@H](CO)C(=O)N[C@@H](CCC(N)=O)C(=O)N[C@@H](Cc1ccc(F)cc1)C(=O)N[C@H](C)C(=O)N1Cc2ccccc2C[C@H]1C(=O)N[C@H](C)C(=O)O [OK-112, dAla-Gly-dTyr-Phe-Nle-Pro-dSer-Gln-fluorPhe-dAla-Tic-dAla] ({Palmitoyl-PEG8}-[dA]G[dY]F[Nle]P[dS]Q[Phe(4-F)][dA][Tic][dA]-OH; C-terminus assumed)	1.4 nM
CCCCCCCCCCCCCCCC(=O)NCCOCCOCCOCCOCCOCCOCCOCCOCCC(=O)N[C@@H](C)C(=O)NCC(=O)N[C@H](Cc1ccc(O)cc1)C(=O)N[C@@H](Cc1ccc(O)cc1)C(=O)N[C@@H](CCCC)C(=O)N1CCC[C@H]1C(=O)N[C@H](CO)C(=O)N[C@@H](CCC(N)=O)C(=O)N[C@@H](Cc1ccccc1)C(=O)N[C@H](C)C(=O)N[C@@H](Cc1ccccc1)C(=O)N[C@H](C)C(=O)O [OK-108, Ala-Gly-dTyr-Tyr-Nle-Pro-dSer-Gln-Phe-dAla-Phe-dAla] ({Palmitoyl-PEG8}-AG[dY]Y[Nle]P[dS]QF[dA]F[dA]-OH; C-terminus assumed)	23.9 nM
CCCCCCCCCCCCCCCC(=O)NCCOCCOCCOCCOCCOCCOCCOCCOCCC(=O)N[C@@H](C)C(=O)NCC(=O)N[C@H](Cc1ccc(O)cc1)C(=O)N[C@@H](Cc1ccccc1)C(=O)N[C@@H](CCCC)C(=O)N1CCC[C@H]1C(=O)N[C@H](CO)C(=O)N[C@@H](CCC(N)=O)C(=O)N[C@@H](Cc1ccccc1)C(=O)N[C@@H](C)C(=O)N1Cc2ccccc2C[C@H]1C(=O)N[C@H](CO)C(=O)O [OK-114, Ala-Gly-dTyr-Phe-Nle-Pro-dSer-Gln-Phe-Ala-Tic-dSer] ({Palmitoyl-PEG8}-AG[dY]F[Nle]P[dS]QFA[Tic][dS]-OH; C-terminus assumed)	< 0.5 nM
CCCCCCCCCCCCCCCC(=O)NCCOCCOCCOCCOCCOCCOCCOCCOCCC(=O)N[C@H](C)C(=O)NCC(=O)N[C@H](Cc1ccc(O)cc1)C(=O)N[C@@H](Cc1ccccc1)C(=O)N[C@@H](CCCC)C(=O)N1CCC[C@H]1C(=O)N[C@H](CO)C(=O)N[C@@H](CCCC(=O)O)C(=O)N[C@@H](Cc1ccccc1)C(=O)N[C@H](C)C(=O)N1Cc2ccccc2C[C@H]1C(=O)N[C@H](C)C(=O)O [OK-111, dAla-Gly-dTyr-Phe-Nle-Pro-dSer-Aad-Phe-dAla-Tic-dAla] ({Palmitoyl-PEG8}-[dA]G[dY]F[Nle]P[dS][Aad]F[dA][Tic][dA]-OH; C-terminus assumed)	15 nM
CCCCCCCCCCCCCCCC(=O)NCCOCCOCCOCCOCCOCCOCCOCCOCCC(=O)N[C@@H](C)C(=O)N[C@@H](C)C(=O)N[C@@H](Cc1ccccc1)C(=O)N[C@@H](Cc1ccc(O)cc1)C(=O)N[C@@H](CCCC)C(=O)N1CCC[C@H]1C(=O)N[C@H](C(=O)N[C@@H](CCC(N)=O)C(=O)N[C@@H](Cc1ccccc1)C(=O)N[C@@H](C)C(=O)N1Cc2ccccc2C[C@H]1C(=O)N[C@H](C)C(=O)O)[C@@H](C)O [OK-106, Ala-Ala-Phe-Tyr-Nle-Pro-Thr-Gln-Phe-Ala-Tic-dAla] ({Palmitoyl-PEG8}-AAFY[Nle]PTQFA[Tic][dA]-OH; C-terminus assumed)	32.5 nM
CCCCCCCCCCCCCCCC(=O)NCCOCCOCCOCCOCCOCCOCCOCCOCCC(=O)NCC(=O)NCC(=O)N[C@@H](Cc1ccccc1)C(=O)N[C@@H](Cc1ccccc1)C(=O)N[C@@H](CCCC)C(=O)N1CCC[C@H]1C(=O)N[C@@H](CO)C(=O)N[C@@H](CCC(N)=O)C(=O)N[C@@H](Cc1ccccc1)C(=O)N[C@@H](C)C(=O)N1Cc2ccccc2C[C@H]1C(=O)N[C@H](CO)C(=O)O [OK-116, Gly-Gly-Phe-Phe-Nle-Pro-Ser-Gln-Phe-Ala-Tic-dSer] ({Palmitoyl-PEG8}-GGFF[Nle]PSQFA[Tic][dS]-OH; C-terminus assumed)	63.9 nM
CCCCCCCCCCCCCCCC(=O)NCCOCCOCCOCCOCCOCCOCCOCCOCCC(=O)N[C@H](C)C(=O)NCC(=O)N[C@H](Cc1ccc(O)cc1)C(=O)N[C@@H](Cc1ccc(O)cc1)C(=O)N[C@@H](CCCC)C(=O)N1CCC[C@H]1C(=O)N[C@H](CO)C(=O)N[C@@H](CCCC(=O)O)C(=O)N[C@@H](Cc1ccccc1)C(=O)N[C@H](C)C(=O)N1Cc2ccccc2C[C@H]1C(=O)N[C@H](C)C(=O)O [OK-110, dAla-Gly-dTyr-Tyr-Nle-Pro-dSer-Aad-Phe-dAla-Tic-dAla] ({Palmitoyl-PEG8}-[dA]G[dY]Y[Nle]P[dS][Aad]F[dA][Tic][dA]-OH; C-terminus assumed)	11 nM
CCCCCCCCCCCCCCCC(=O)NCCOCCOCCOCCOCCOCCOCCOCCOCCC(=O)N[C@@H](C)C(=O)N[C@@H](C)C(=O)N[C@@H](Cc1ccccc1)C(=O)N[C@@H](Cc1ccc(O)cc1)C(=O)N[C@@H](CCCC)C(=O)N1CCC[C@H]1C(=O)N[C@@H](CO)C(=O)N[C@@H](CCC(N)=O)C(=O)N[C@@H](Cc1ccc(O)cc1)C(=O)N[C@@H](C)C(=O)N1Cc2ccccc2C[C@H]1C(=O)N[C@H](C)C(=O)O [OK-104, Ala-Ala-Phe-Tyr-Nle-Pro-Ser-Gln-Tyr-Ala-Tic-dAla] ({Palmitoyl-PEG8}-AAFY[Nle]PSQYA[Tic][dA]-OH; C-terminus assumed)	2.6 nM
CCCCCCCCCCCCCCCC(=O)NCCOCCOCCOCCOCCOCCOCCOCCOCCC(=O)N[C@@H](C)C(=O)NCC(=O)N[C@H](Cc1ccc(O)cc1)C(=O)N[C@@H](Cc1ccccc1)C(=O)N[C@@H](CCCC)C(=O)N1CCC[C@H]1C(=O)N[C@H](CO)C(=O)N[C@@H](CCCC(=O)O)C(=O)N[C@@H](Cc1ccccc1)C(=O)N[C@@H](C)C(=O)N1Cc2ccccc2C[C@H]1C(=O)N[C@H](C)C(=O)O [OK-109, Ala-Gly-dTyr-Phe-Nle-Pro-dSer-Aad-Phe-Ala-Tic-dAla] ({Palmitoyl-PEG8}-AG[dY]F[Nle]P[dS][Aad]FA[Tic][dA]-OH; C-terminus assumed)	< 0.5 nM
CCCCCCCCCCCCCCCC(=O)NCCOCCOCCOCCOCCOCCOCCOCCOCCC(=O)N[C@@H](C)C(=O)NCC(=O)N[C@@H](Cc1ccc(O)cc1)C(=O)N[C@@H](Cc1ccccc1)C(=O)N[C@@H](CCCC)C(=O)N1CCC[C@H]1C(=O)N[C@H](C(=O)N[C@@H](CC(N)=O)C(=O)N[C@@H](Cc1ccccc1)C(=O)N[C@@H](C)C(=O)N1Cc2ccccc2C[C@H]1C(=O)N[C@H](C)C(=O)O)[C@@H](C)O [OK-105, Ala-Gly-Tyr-Phe-Nle-Pro-Thr-Asn-Phe-Ala-Tic-dAla] ({Palmitoyl-PEG8}-AGYF[Nle]PTNFA[Tic][dA]-OH; C-terminus assumed)	203 nM
CCCCCCCCCCCCCCCC(=O)NCCOCCOCCOCCOCCOCCOCCOCCOCCC(=O)N[C@@H](C)C(=O)NCC(=O)N[C@@H](Cc1ccccc1)C(=O)N[C@@H](Cc1ccccc1)C(=O)N[C@@H](CCCC)C(=O)N1CCC[C@H]1C(=O)N[C@@H](CO)C(=O)N[C@@H](CCC(N)=O)C(=O)N[C@@H](Cc1ccccc1)C(=O)N[C@@H](C)C(=O)N1Cc2ccccc2C[C@H]1C(=O)N[C@H](C)C(=O)O [OK-115, Ala-Gly-Phe-Phe-Nle-Pro-Ser-Gln-Phe-Ala-Tic-dAla] ({Palmitoyl-PEG8}-AGFF[Nle]PSQFA[Tic][dA]-OH; C-terminus assumed)	12.4 nM
CCCCCCCCCCCCCCCC(=O)NCCOCCOCCOCCOCCOCCOCCOCCOCCC(=O)N[C@@H](CCC)C(=O)NCC(=O)N[C@H](Cc1ccc(O)cc1)C(=O)N[C@@H](Cc1ccccc1)C(=O)N[C@@H](CCCC)C(=O)N1CCC[C@H]1C(=O)N[C@H](CO)C(=O)N[C@@H](CCC(N)=O)C(=O)N[C@@H](Cc1ccccc1)C(=O)N[C@H](C)C(=O)N1Cc2ccccc2C[C@H]1C(=O)N[C@H](C)C(=O)O [OK-113, NorV-Gly-dTyr-Phe-Nle-Pro-dSer-Gln-Phe-dAla-Tic-dAla] ({Palmitoyl-PEG8}-[Nva]G[dY]F[Nle]P[dS]QF[dA][Tic][dA]-OH)	< 0.5 nM
CCCCCCCCCCCCCCCC(=O)NCCOCCOCCOCCOCCOCCOCCOCCOCCC(=O)N[C@H](C)C(=O)NCC(=O)N[C@H](Cc1ccc(O)cc1)C(=O)N[C@@H](Cc1ccccc1)C(=O)N[C@@H](CCCC)C(=O)N1CCC[C@H]1C(=O)N[C@H](CO)C(=O)N[C@@H](CCC(N)=O)C(=O)N[C@@H](Cc1ccccc1)C(=O)N[C@H](C)C(=O)N1Cc2ccccc2C[C@H]1C(=O)N[C@H](C)C(=O)O [OK-102, dAla-Gly-dTyr-Phe-Nle-Pro-dSer-Gln-Phe-dAla-Tic-dAla] ({Palmitoyl-PEG8}-[dA]G[dY]F[Nle]P[dS]QF[dA][Tic][dA]-OH; C-terminus assumed)	2.3 nM
CCCCCCCCCCCCCCCC(=O)NCCOCCOCCOCCOCCOCCOCCOCCOCCC(=O)N[C@@H](C)C(=O)N[C@@H](C)C(=O)N[C@@H](Cc1ccc(O)cc1)C(=O)N[C@@H](Cc1ccccc1)C(=O)N[C@@H](CCCC)C(=O)N1CCC[C@H]1C(=O)N[C@@H](CO)C(=O)N[C@@H](CCC(N)=O)C(=O)N[C@@H](Cc1ccc(O)cc1)C(=O)N[C@H](C)C(=O)N[C@@H](Cc1ccccc1)C(=O)N[C@H](C)C(=O)O [Ok-107, Ala-Ala-Tyr-Phe-Nle-Pro-Ser-Gln-Tyr-dAla-Phe-dAla] ({Palmitoyl-PEG8}-AAYF[Nle]PSQY[dA]F[dA]-OH; C-terminus assumed)	1710 nM
CCCCCCCCCCCCCCCC(=O)NCCOCCOCCOCCOCCOCCOCCOCCOCCC(=O)N[C@@H](C)C(=O)N[C@@H](C)C(=O)N[C@@H](Cc1ccc(O)cc1)C(=O)N[C@@H](Cc1ccccc1)C(=O)N[C@@H](CCCC)C(=O)N1CCC[C@H]1C(=O)N[C@@H](CO)C(=O)N[C@@H](CCC(N)=O)C(=O)N[C@@H](Cc1ccccc1)C(=O)N[C@@H](C)C(=O)N1Cc2ccccc2C[C@H]1C(=O)N[C@H](C)C(=O)O [OK-103, Ala-Ala-Tyr-Phe-Nle-Pro-Ser-Gln-Phe-Ala-Tic-dAla] ({Palmitoyl-PEG8}-AAYF[Nle]PSQFA[Tic][dA]-OH; C-terminus assumed)	43 nM
